Test results: patent US20220324932A1 (CSPC MEGALITH BIOPHARMACEUTICAL, published 2022)

B1: PEG-30K-IL-2A1 (IL-2A1 conjugated with 30 kDa methoxy-PEG-amine) (ligand)
chain: not shown
modifications: 30 kDa methoxy-PEG-amine conjugated at Q43
notes: also called DP006-A-30; DP630a
B2: PEG-20K-IL-2A1 (IL-2A1 conjugated with 20 kDa methoxy-PEG-amine) (ligand)
chain: not shown
modifications: 20 kDa methoxy-PEG-amine conjugated by mTGase to the engineered Q residue (F43Q)
notes: The conjugation site Q43 was mapped by LC-MS/MS only for the 30 kDa conjugate; also called DP006-A-20; 20 kDa PEG-IL-2A1
B3: PEG-40K-IL-2A1 (IL-2A1 conjugated with 40 kDa methoxy-PEG-amine) (ligand)
chain: not shown
modifications: 40 kDa methoxy-PEG-amine conjugated by mTGase to the engineered Q residue (F43Q)
notes: also called DP006-A-40
B4: IL-2A1 (modified IL-2 protein with engineered Q residue F43Q relative to IL-2 Aldesleukin) (ligand)
chain: not shown
notes: also called DP006A; DP006-A
B5: IL-2 Aldesleukin (human recombinant IL-2) (ligand)
chain: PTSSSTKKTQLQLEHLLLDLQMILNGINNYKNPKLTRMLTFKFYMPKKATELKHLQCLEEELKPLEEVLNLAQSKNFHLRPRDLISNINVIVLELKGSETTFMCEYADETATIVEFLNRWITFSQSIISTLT
notes: Desalanyl-1, serine-125 human IL-2 (no N-terminal alanine, C125S), not glycosylated, made in E. coli; also called Aldesleukin IL-2; parent IL-2

Tests used:
human IL-2Rβ-His [1] = molecular target: T1, human IL-2Rβ-His (human, UniProt P14784 27-240); assay: SPR (Biacore T-200), IL-2Rβ-His captured; Kd relative to Aldesleukin IL-2
T1 construct: Captured on a CM-5 chip by an anti-histidine antibody; also called CD122; IL-2Rβ subunit; not shown: His tag
T1 sequence (looked up): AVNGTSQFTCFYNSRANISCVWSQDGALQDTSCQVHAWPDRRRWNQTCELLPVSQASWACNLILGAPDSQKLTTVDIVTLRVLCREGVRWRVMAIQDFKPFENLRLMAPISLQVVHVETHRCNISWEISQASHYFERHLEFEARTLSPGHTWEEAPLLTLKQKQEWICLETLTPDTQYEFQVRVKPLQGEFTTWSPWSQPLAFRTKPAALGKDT
Procedure: (§1) The binding affinities of modified IL-2 protein or modified IL-2 protein-PEG conjugates to IL-2Rα or IL-2Rβ were measured by SPR (Biacore T-200) and compared to that of Aldesleukin IL-2 protein. Anti-histidine antibody was coupled to the surface of a CM-5 sensor chip using EDC/NHS chemistry. For IL-2Rα binding test, human IL-2Rα-His was used as the captured ligand over the surface. For IL-2Rβ binding test, human IL-2Rβ-His was used as the captured ligand over the surface. Serial dilutions of modified IL-2 protein or modified IL-2 protein-PEG conjugates were made with Running Buffer (1×HEPES, with 0.005% Tween-20, pH 7.4). These serial dilutions were allowed to bind to the IL-2Rα-His or IL-2Rβ-His ligands for 60 seconds. Binding responses were measured in response unit (RU) and plotted against protein concentration to determine Kd values (see Table 1). The binding affinities of each construct to IL-2Rα or IL-2Rβ were further calculated as fold changes relative to those of Aldesleukin IL-2 protein to the same IL-2R subtype (see Table 1).

human IL-2Rβ-His [2] = molecular target: T1, human IL-2Rβ-His; assay: SPR (Biacore T-200), IL-2Rβ-His captured by anti-histidine antibody on CM-5 chip
Procedure: as §1

[3] = molecular target: T2, IL-2Rα (CD25) on the cell surface of mouse T cells (CTLL-2 cells; Treg cells of C57BL/6 mice) (mouse, UniProt P01590 22-268); assay: cell-based or functional assay
T2 sequence (looked up): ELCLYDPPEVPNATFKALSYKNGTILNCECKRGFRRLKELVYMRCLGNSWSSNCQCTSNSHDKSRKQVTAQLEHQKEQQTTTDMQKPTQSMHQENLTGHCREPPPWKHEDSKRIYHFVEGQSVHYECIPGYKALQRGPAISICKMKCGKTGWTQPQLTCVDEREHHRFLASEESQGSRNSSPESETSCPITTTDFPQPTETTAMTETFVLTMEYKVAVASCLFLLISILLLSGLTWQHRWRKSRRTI

human IL-2Rα-His [4] = molecular target: T3, human IL-2Rα-His (human, UniProt P01589 22-217, limits assumed); assay: SPR (Biacore T-200), IL-2Rα-His captured; Kd relative to Aldesleukin IL-2
T3 construct: Captured on a CM-5 chip by an anti-histidine antibody; also called CD25; IL-2Rα subunit; not shown: His tag
T3 sequence (looked up): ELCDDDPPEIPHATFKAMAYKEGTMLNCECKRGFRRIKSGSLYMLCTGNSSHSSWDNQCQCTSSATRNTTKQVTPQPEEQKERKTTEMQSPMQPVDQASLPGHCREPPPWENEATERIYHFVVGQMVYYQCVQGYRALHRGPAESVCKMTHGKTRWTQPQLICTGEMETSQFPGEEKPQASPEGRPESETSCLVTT
Procedure: as §1

human IL-2Rα-His [5] = molecular target: T3, human IL-2Rα-His; assay: SPR (Biacore T-200), IL-2Rα-His captured by anti-histidine antibody on CM-5 chip
Procedure: as §1

human IL-2Rα-His [6] = molecular target: T3, human IL-2Rα-His; assay: SPR (Biacore T-200), IL-2Rα-His captured; reference itself
Procedure: as §1

human IL-2Rβ-His [7] = molecular target: T1, human IL-2Rβ-His; assay: SPR (Biacore T-200), IL-2Rβ-His captured; reference itself
Procedure: as §1

Binder	Fold change relative to IL-2 (wt) (human IL-2Rβ-His [1])	Kd (human IL-2Rβ-His [2])	bioactivity in inducing CTLL-2 cell growth, compared to its parent protein IL-2A1 [3]	percentage of Treg cells in blood of C57BL/6 mice after treatment [3]	fold decrease in bioactivity in inducing CTLL-2 cell growth, compared to parent IL-2 Aldesleukin [3]	Fold change relative to IL-2 (wt) (human IL-2Rα-His [4])	Kd (human IL-2Rα-His [5])	Fold change relative to IL-2 (wt) (human IL-2Rα-His [6])	Fold change relative to IL-2 (wt) (human IL-2Rβ-His [7])
B1	10.1 fold	5.41 µM	–	–	–	–	–	–	–
B2	8.34 fold	–	~3 fold	0.28%	–	–	–	–	–
B3	10.9 fold	5.85 µM	–	–	–	–	–	–	–
B4	15.7 fold	8.39 µM	–	0.52%	~4 fold	476 fold	17.2 µM	–	–
B5	–	0.536 µM	–	3.23%	–	–	0.0361 µM	1 fold	1 fold
